Over roughly 33,000 sequences, “E-score (-0.5 to 0.5)” has its median near -0.041; the highest 2% begin near 0.37. The list shows a part of the results.
Molecular target: T1, Ecm22 (UniProt Q05958)
T1 sequence: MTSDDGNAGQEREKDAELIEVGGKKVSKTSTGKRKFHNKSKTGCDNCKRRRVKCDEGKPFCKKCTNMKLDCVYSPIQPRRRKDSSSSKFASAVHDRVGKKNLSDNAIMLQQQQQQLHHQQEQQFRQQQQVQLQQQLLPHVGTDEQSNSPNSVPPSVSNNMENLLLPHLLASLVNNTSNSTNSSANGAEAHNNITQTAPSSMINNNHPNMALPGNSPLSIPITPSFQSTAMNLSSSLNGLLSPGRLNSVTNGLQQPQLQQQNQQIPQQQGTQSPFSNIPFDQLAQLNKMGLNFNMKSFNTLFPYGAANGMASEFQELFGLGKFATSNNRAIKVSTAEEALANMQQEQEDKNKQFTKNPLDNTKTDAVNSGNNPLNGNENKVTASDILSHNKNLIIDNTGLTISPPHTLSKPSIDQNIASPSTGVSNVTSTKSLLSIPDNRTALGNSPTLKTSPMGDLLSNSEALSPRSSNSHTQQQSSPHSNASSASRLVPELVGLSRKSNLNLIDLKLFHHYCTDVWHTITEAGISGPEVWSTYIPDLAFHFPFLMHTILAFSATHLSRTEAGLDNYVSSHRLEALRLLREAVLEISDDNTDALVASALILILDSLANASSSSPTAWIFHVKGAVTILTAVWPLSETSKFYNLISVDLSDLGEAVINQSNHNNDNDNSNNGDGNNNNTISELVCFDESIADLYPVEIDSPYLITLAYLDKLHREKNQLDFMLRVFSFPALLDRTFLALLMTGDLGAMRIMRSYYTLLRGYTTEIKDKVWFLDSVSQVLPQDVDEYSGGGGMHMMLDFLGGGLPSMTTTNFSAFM
Assay: PBM E-score (8-mer binding enrichment) (E-score (-0.5 to 0.5)); higher = stronger / more preferred TF binding; most listed sequences are background and not binding sites
Conditions: protein concentration: 200 nM; construct: GST-full length
Summary of the method: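 For each ungapped eight-base word taken together with its reverse complement, the Universal PBM Analysis Suite assigned an E-score. Binding data came from GST-tagged yeast transcription factors, applied at about 100-200 nM, on universal all-10-mer Agilent arrays made double-stranded by primer extension. Fluorescent anti-GST marked bound protein, and scans were normalised with masliner.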

Row | Sequence | PBM E-score
1 | ATGCATTA | 0.0729
2 | ACTGAGCC | 0.0769
3 | CTGTAGAA | -0.119
4 | AGAGGAAA | -0.155
5 | GAGTCAGA | -0.0459
6 | ACTAACAG | -0.0226
7 | AACTCCGA | -0.0408
8 | AGTGTTAA | -0.0442
9 | AAAAACGG | 0.13
10 | CCAATTAA | -0.11
11 | CTGATGGA | -0.232
12 | AGAGAGAA | -0.0389
13 | AAAAGGCC | -0.0664
14 | CAATAAAA | -0.225
15 | CCGGCTGC | -0.0376
16 | AATCTCTG | -0.106
17 | AAAGCTTT | -0.0648
18 | ATAGTCTC | 0.0874
19 | AAAACAGT | 0.124
20 | ACAGCCCG | -0.203
21 | AGTACGGA | 0.288
22 | ACTCAGAC | -0.153
23 | AGTCTGAA | -0.0981
24 | ACGCCTTG | -0.142
25 | GCGCAGTA | 0.107

Row | Sequence | PBM E-score
26 | AGAACAGG | -0.163
27 | CATAATCC | -0.0735
28 | TTGTTAAA | -0.0863
29 | GAATGGGA | -0.187
30 | ATATCTTC | 0.0742
31 | CTTGCCCC | -0.15
32 | GATCGTCC | -0.0538
33 | ACTACGTC | -0.195
34 | CACGGTTC | -0.175
35 | CCGAATTA | 0.124
36 | AAGCACCC | 0.0476
37 | AAATATGA | -0.132
38 | ATCGAACG | 0.201
39 | ACCTACCT | -0.0978
40 | ATGACGCC | -0.11
41 | ACATCTGC | -0.142
42 | GGTGTCGA | 0.0114
43 | CTGAGGAC | -0.135
44 | AACATATG | 0.0682
45 | AACTTAAT | -0.0568
46 | ACATAGTA | 0.172
47 | AGGGTAAA | -0.181
48 | CCAATCAA | -0.107
49 | CTATGCGA | 0.319
50 | CCTTGAGA | -0.307

Row | Sequence | PBM E-score
51 | ACCAGATC | -0.185
52 | ATAATCAT | 0.105
53 | CATGACCA | -0.141
54 | CCCGTGCG | 0.0157
55 | GGCTAGCA | -0.37
56 | ACAACGCG | 0.147
57 | GAGTGTAA | -0.208
58 | GAGCTCGC | 0.214
59 | CGATCCTA | -0.061
60 | AGGGAACC | 0.00984
61 | CCAGTATC | -0.00596
62 | AAGGAAAA | 0.0839
63 | AGGGCAAT | -0.179
64 | AAGGCGGC | -0.143
65 | GCGCGACA | -0.00306
66 | GCACCAAC | -0.0644
67 | CAGAGCTC | -0.278
68 | ACGGTTCA | -0.0308
69 | GAGTTACC | -0.024
70 | ACGGGCTC | 0.124
71 | GAACCGTC | 0.0103
72 | AGAGATCT | -0.0842
73 | AGGCACAA | -0.303
74 | GAGGTGCC | -0.048
75 | GGGAATGA | -0.154

Row | Sequence | PBM E-score
76 | ATCTATTG | 0.037
77 | TACGACTA | 0.438
78 | GCCACTTA | -0.0338
79 | AGACGCGG | -0.105
80 | CCCCACTA | -0.232
81 | CAGCATAC | -0.0447
82 | CAACCTCA | -0.15
83 | CGGAAGAA | 0.089
84 | GCCCTTGA | -0.202
85 | CTACTGCC | -0.0288
86 | TAGATGAA | -0.0499
87 | CCCGCAAC | 0.0108
88 | CGGTGGCC | -0.232
89 | ACGCTAGT | -0.0278
90 | GAGGCTAA | -0.173
91 | CGGCAGGA | 0.0362
92 | AAAAACTG | -0.116
93 | AAGGTGAG | -0.0406
94 | AAGCCTCT | -0.212
95 | AAGCTGCA | -0.0356
96 | CAAATTGA | -0.105
97 | TACGAACA | 0.452
98 | TCTGTTAA | -0.0197
99 | ACATGAGA | -0.0378
100 | ATTAGAAC | 0.0479

Row | Sequence | PBM E-score
101 | AAACCCCT | -0.265
102 | AGCACGCA | -0.139
103 | GGTAAGCA | -0.132
104 | ACGGGTTG | 0.189
105 | ATGGGCGC | -0.111
106 | CTACGCCA | -0.273
107 | CCGAAGTC | 0.0185
108 | GCACACCC | -0.0607
109 | ACTACGCT | -0.125
110 | TGCATCCA | -0.156
111 | TCAGGGCA | -0.0129
112 | CTGTTATA | 0.00278
113 | ACGACGAG | 0.38
114 | AAGCTATT | -0.0496
115 | GATTGTAA | 0.12
116 | AAACGGAG | 0.29
117 | CAACTTAG | -0.104
118 | GATGTTCA | -0.228
119 | ACAAGTTG | -0.257
120 | GACGGTCC | -0.169
121 | CCGGAGCG | 0.19
122 | GCCAACGA | 0.0777
123 | AAATTTAG | 0.134
124 | AACAAACA | -0.148
125 | CAACGGGC | 0.0786

Row | Sequence | PBM E-score
126 | CCTGCGTC | -0.186
127 | GCACCGGC | -0.141
128 | TACAAGTA | 0.0403
129 | ATCCTACG | 0.0255
130 | CGTGCCGA | 0.169
131 | AGGGCGTA | 0.0999
132 | CCCACTTC | 0.0232
133 | ATATCCAG | 0.0146
134 | GGGTACGA | 0.491
135 | ATCTACAT | -0.0415
136 | ATAATCCA | -0.0422
137 | ATAGGGAG | -0.184
138 | AAACATAA | -0.0761
139 | CCGGTCGA | -0.0232
140 | TAAACATA | 0.0845
141 | ATTTGTTG | 0.0446
142 | ACTAGTCT | -0.282
143 | AGGCAAAG | -0.172
144 | AATGGAGA | -0.117
145 | CGGTAGGA | -0.125
146 | AGGGATAA | -0.0417
147 | GACCCTGC | -0.0631
148 | GCCGCCGA | -0.109
149 | ATTCACGA | 0.0492
150 | GGGACAAC | 0.0183

Row | Sequence | PBM E-score
151 | CGTTAATA | 0.352
152 | ATTAAGTA | 0.103
153 | CGGTTAGC | 0.086
154 | CAATCAGG | -0.199
155 | TATGACAA | 0.168
156 | GGGAAAAC | 0.0506
157 | CAAGCTTA | -0.168
158 | GACTGTCC | -0.0668
159 | GCCGGCCC | -0.211
160 | ATTGCAAA | -0.0382
161 | CGTAAGTC | 0.203
162 | ACCATTCG | -0.0649
163 | AATCTGAG | -0.116
164 | CTTTAAAA | -0.0237
165 | GAGTATAC | 0.286
166 | GTGCCCAA | -0.204
167 | ACGGTCTG | 0.0887
168 | CAATACGA | 0.403
169 | GCCTTGCC | -0.135
170 | CAGCTACA | -0.1
171 | GACTAAGC | 0.037
172 | AGCTAGTC | -0.0169
